{"source": "PubChem BioAssay AID485294", "about": "(National Center for Advancing Translational Sciences (NCATS), 2010)", "note": "About 150 (0.041%) of roughly 370,000 compounds were called active. This list was built around the results that the source calls inconclusive (neither active nor inactive); the mix of calls is not that of the screen. The call rests on the fitted dose curve; in most records, active means well fitted inhibition curve with a large enough effect; inconclusive means small, poorly fitted or top-dose-only effect; inactive means flat fitted curve, though single readings scatter. Potencies of inconclusive entries are left out as doubtful fits. Potency means the concentration at half of the fitted maximal effect; tags describe the fitted curve by direction and shape.", "data": [{"target": "Beta-lactamase (Escherichia coli (strain K12)) (UniProt P00811)", "sequence (P00811 whole entry, looked up)": "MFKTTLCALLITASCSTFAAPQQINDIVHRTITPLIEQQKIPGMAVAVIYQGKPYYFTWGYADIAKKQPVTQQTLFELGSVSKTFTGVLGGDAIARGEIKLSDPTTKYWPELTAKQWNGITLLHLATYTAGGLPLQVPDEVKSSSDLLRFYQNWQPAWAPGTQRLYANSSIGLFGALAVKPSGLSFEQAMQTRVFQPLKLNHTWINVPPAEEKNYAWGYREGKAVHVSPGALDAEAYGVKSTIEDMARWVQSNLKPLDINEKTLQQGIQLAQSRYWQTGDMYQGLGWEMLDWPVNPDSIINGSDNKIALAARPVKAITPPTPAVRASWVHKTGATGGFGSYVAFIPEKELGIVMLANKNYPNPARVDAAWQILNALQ", "assay": "qHTS Inhibitors of AmpC Beta-Lactamase (assay with detergent); further: nearly all actives have a fitted effect of over 25% in size;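 on activity change, negative = inhibition: 0% = no-compound wells and -100% = no-enzyme wells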", "details": "AmpC hydrolysis of nitrocefin, absorbance 480 nm, 0.01% Triton; activity change, negative = inhibition: at 114 µM (top of the series)", "in_short": "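20 mM phosphate pH 7.0 + 0.01% (detergent screen) or 0.0001% Triton X-100; 5.3 nM AmpC reagent; cpd preinc 15 min RT; nitrocefin (800 uM stock) to start; A480 q20 s × 4 min; Activity was normalised to no-enzyme and no-compound control wells.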", "values": [{"compound": "O=C(NCc1ccc(Cl)cc1)c1ccc(-c2ccccc2C(F)(F)F)o1", "Potency": "inconclusive [inhibitor, partial curve, poor fit]"}, {"compound": "CCCSc1nnc(CSc2nc(C)cc(C)n2)n1C", "Potency": "inconclusive [inhibitor, full curve, poor fit]"}, {"compound": "COc1ccc(/C=N/NC(=O)c2ccc(N)cc2)cc1Cn1cc([N+](=O)[O-])cn1", "activity change, negative = inhibition": "inactive: -0.935%"}, {"compound": "O=C(Nc1ccncc1)Nc1ccccn1", "activity change, negative = inhibition": "inactive: -10.8%"}, {"compound": "CCCc1nc(SC2CCCC2)c2c(=O)n(C)c(=O)n(C)c2n1", "Potency": "inconclusive [inhibitor, full curve, poor fit]"}, {"compound": "CC(OC(=O)c1c2c(nc3ccccc13)/C(=C\\c1ccc3c(c1)OCO3)CCC2)C(=O)Nc1ccc(S(N)(=O)=O)cc1", "note": "(stereo not drawn)", "Potency": "inconclusive [inhibitor, full curve, poor fit]"}, {"compound": "CC(=O)Nc1c(I)c(NC(C)=O)c(I)c(C(=O)O)c1I", "Potency": "inconclusive [inhibitor, full curve, poor fit]"}, {"compound": "CCOC(=O)N1CCN(C(=O)c2cc3c(-c4ccc(Cl)cc4)nn(C)c3s2)CC1", "Potency": "inconclusive [inhibitor, full curve, poor fit]"}, {"compound": "Fc1ccc(-n2c(Cc3ccccc3)nnc2SCc2nc(-c3ccc(Cl)cc3)no2)cc1", "Potency": "inconclusive [inhibitor, partial curve, poor fit]"}, {"compound": "CC(C)(C)C(=O)N1CCN(S(=O)(=O)c2ccc3c(c2)OCCCO3)CC1", "Potency": "inconclusive [inhibitor, partial curve, poor fit]"}, {"compound": "CCOc1ccc(C(C)=O)cc1COC(=O)c1cnc(Cl)c(Cl)c1", "Potency": "inconclusive [inhibitor, full curve, poor fit]"}, {"compound": "C=CCn1c(SCC(=O)c2ccc(O)c(O)c2)nnc1-c1ccccc1OC", "activity change, negative = inhibition": "inactive: -18.1%"}, {"compound": "Fc1cnc(N2CCOCC2)nc1N1CCc2ccccc21", "Potency": "inconclusive [inhibitor, single point]"}, {"compound": "O=c1[nH]c(=O)n(Cc2ccccc2)c(O)c1/C=C1\\C=Nc2ccccc21", "activity change, negative = inhibition": "inactive: -4.29%"}, {"compound": "COc1ccc(C(CC(=O)c2ccccc2)CC(=O)c2ccccc2)cc1", "activity change, negative = inhibition": "inactive: 1.16%"}, {"compound": "COc1cccc(N(CC(=O)N2CCOCC2)S(C)(=O)=O)c1", "Potency": "inconclusive [inhibitor, partial curve, poor fit]"}, {"compound": "CC(=O)c1c(C)[nH]c(C(=O)NC2=NCCS2)c1C", "Potency": "inconclusive [inhibitor, full curve, poor fit]"}, {"compound": "Cn1cccc1/C=N/NC(=O)c1cccnc1", "Potency": "inconclusive [inhibitor, single point]"}]}]}
